The supplement of paper PMC10126150
Sequences with one replicate were seen in a single cluster, so their values are uncertain.

Tested on: ATP
Experiment: switch fluorescence ratio, 500 uM ATP over buffer (Cy3 cluster intensity, sum of 5 cycles each) (fold (ratio)); higher = stronger signal-on switching upon ATP binding; sequences stand for … in TCGTCGGCAGCGTCAGATGTGTATAAGAGACAGTTTTTTTTTTTTTTTTTTTTTTTTT…TC
Conditions: aptamer strand: ATP DNA aptamer (quencher-CACCTGGGGGAGTATTGCGGAGGAAGG + anchor), 100 nM annealed; ATP concentration: 500 uM; one replicate
How it was run: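 Cy3-labelled switching-strand clusters on a modified Illumina MiSeq flow-cell were annealed to 100 nM quencher-labelled ATP aptamer, imaged in selection buffer, then imaged after 15 min with 500 uM ATP at 22 °C. Five buffer/ATP cycles ran, with NaOH stripping and re-annealing between them. The fluorescence ratio is summed target-cycle over summed buffer-cycle Cy3 intensity per cluster, averaged per switch-domain sequence. Clusters outside 100-1000 RFU were excluded.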
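Note: ATP exposure 15 min at 22 °C before imaging.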

Row | Sequence | switch fluorescence ratio
1 | CATCAGCT | 1.12
2 | CATCAGTGT | 1.01
3 | CATCATGCCA | 1.05
4 | CATCCAGGAT | 1.06
5 | CATCCCGCGG | 1.31
6 | CATCCGGATG | 1.01
7 | CATCCGTGTA | 3.49
8 | CATCCTGGGT | 1.06
9 | CATCGGGTCT | 1.18
10 | CATCGTATCT | 1.03
11 | CATCTAAATT | 1.04
12 | CATCTACGGC | 1.05
13 | CATCTAGAGG | 1.01
14 | CATCTGTCAT | 1.3
15 | CATGAACGGA | 1
16 | CATGACGGCC | 0.894
17 | CATGAGCAGG | 1.12
18 | CATGAGGACG | 1.04
19 | CATGAGGCAT | 1.04
20 | CATGATCTGT | 1.02
21 | CATGATGAAG | 0.972
22 | CATGATGGGC | 1.07
23 | CATGCAAACT | 1.16
24 | CATGCAAGAG | 2.28
25 | CATGCAAGTT | 1.02
26 | CATGCAGGGA | 0.972

Row | Sequence | switch fluorescence ratio
27 | CATGCATACG | 1.09
28 | CATGCCTCTG | 0.99
29 | CATGCCTTTC | 1.23
30 | CATGCGAGAT | 1.05
31 | CATGCGCCTG | 1.04
32 | CATGCGGGA | 1.08
33 | CATGCTAGGA | 0.943
34 | CATGCTCAGT | 0.992
35 | CATGCTGACG | 1.01
36 | CATGCTGCCT | 0.984
37 | CATGGATAGA | 1.02
38 | CATGGCACCA | 0.997
39 | CATGGCACTG | 0.994
40 | CATGGCGGGG | 1.03
41 | CATGGCTCGC | 1.04
42 | CATGGCTTGG | 0.963
43 | CATGGGAGAA | 0.991
44 | CATGGGGATA | 0.988
45 | CATGGGTCGA | 1
46 | CATGGTAATG | 0.937
47 | CATGGTGTAA | 0.997
48 | CATGGTTCCA | 1.02
49 | CATGTAAGT | 0.961
50 | CATGTAGATA | 0.957
51 | CATGTAGGGG | 1.03
52 | CATGTTGCTT | 0.987

Row | Sequence | switch fluorescence ratio
53 | CATTAAAACT | 0.976
54 | CATTAAAATC | 0.994
55 | CATTAATAAG | 0.943
56 | CATTACCACC | 1.26
57 | CATTACGTGG | 0.966
58 | CATTACTATC | 0.99
59 | CATTAGGCGA | 1.07
60 | CATTAGGCGT | 0.96
61 | CATTATCAGT | 0.973
62 | CATTATGGTA | 1.04
63 | CATTATGTAG | 1.01
64 | CATTATGTGG | 0.981
65 | CATTCATCTA | 1.01
66 | CATTCGGTAA | 1.07
67 | CATTCGGTTT | 0.976
68 | CATTCTGTAC | 1.08
69 | CATTGAAGGG | 0.956
70 | CATTGACCTC | 1.07
71 | CATTGAGACC | 1.18
72 | CATTGAGATA | 0.976
73 | CATTGCGA | 1.1
74 | CATTGCGTGT | 0.972
75 | CATTGCTTAC | 2.17
76 | CATTGGAAGT | 0.979
77 | CATTGGAGTT | 1.03
78 | CATTGGCATG | 0.98

Row | Sequence | switch fluorescence ratio
79 | CATTGGCG | 0.917
80 | CATTGGCTAT | 1.05
81 | CATTGGGCGC | 0.997
82 | CATTGTAAT | 1.01
83 | CATTGTCAGC | 0.988
84 | CATTTAAAAG | 0.994
85 | CATTTACGTT | 1.29
86 | CATTTATCTG | 0.989
87 | CATTTATTCA | 0.979
88 | CATTTCCCGC | 1.51
89 | CATTTCGCCT | 1.04
90 | CATTTGCACT | 1.12
91 | CATTTGGGG | 0.977
92 | CATTTTGAAC | 0.968
93 | CATTTTGGAC | 0.999
94 | CATTTTTCT | 0.963
95 | CCAAAATGAA | 0.992
96 | CCAAACGGGT | 0.978
97 | CCAAAGAAGC | 0.977
98 | CCAAAGTGGA | 1.05
99 | CCAAATATGG | 1.04
100 | CCAACAAAC | 1.2
101 | CCAACACCAC | 1.13
